Measurements: PubChem BioAssay AID1347073 (National Center for Advancing Translational Sciences (NCATS), 2019)
About 200 (0.44%) of roughly 45,000 compounds were called active. Roughly 7% stayed inconclusive and do not appear here. The call rests on the fitted dose curve; in most records, active means well fitted activation curve with a large enough effect; inconclusive means small, poorly fitted or top-dose-only effect; inactive means no such curve, though single readings can be large or run the other way. Some of the results follow.

Assay: qHTS of TDP-43 Inhibitors: NCGC Sytravon Library Screen; further: nearly all actives have a fitted effect of over 55% in size; on growth rescue (activation): 0% is about no effect
Conditions: yeast TDP-43 toxicity rescue, BacTiter-Glo growth, 24 h; series mostly up to 46.1 µM; growth rescue (activation): at the top concentration
Procedure, shortened: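 TDP-43-expressing yeast, pregrown in raffinose, seeded at OD600 0.02 in galactose medium with compound for 24 hr at 30 deg C. Growth read by BacTiter-Glo luminescence, so rescue of toxicity appears as activation.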
Potency means the concentration at half of the fitted maximal effect.

Row | SMILES | growth rescue (activation) | Potency
1 | CC(NC(=O)c1ccc(NS(C)(=O)=O)cc1)c1ccccc1 (centres undefined) | inactive: -18.9% | 
2 | CCn1ccc(C(=O)Nc2cccc(Cl)c2)n1 | inactive: 20.1% | 
3 | Cc1ccc(S(=O)(=O)NN2C(=O)/C(=C\c3ccc(Cl)cc3)SC2=S)cc1 | inactive: -14.7% | 
4 | O=C(NC1CCN(C(=O)NCc2ccccc2)CC1)c1ccccc1 | inactive: 3.82% | 
5 | Cc1cc(C)cc(-n2cc(C(=O)O)c(=O)cc2C)c1 | inactive: 2.8% | 
6 | Cc1cc(S(=O)(=O)N2CCOCC2)ccc1OCC(=O)N1CCC(C(N)=O)CC1 | inactive: 8.24% | 
7 | Cc1ccc(C)c(C(O)c2ncc(-c3ccccc3F)[nH]2)c1 (centres undefined) | inactive: 0.347% | 
8 | COc1ccc(CN(C)Cc2nc3scc(-c4ccccc4)c3c(=O)[nH]2)cc1OC | inactive: 13.4% | 
9 | O=c1c2cn(Cc3ccc(F)cc3)c3ccccc3c-2nn1Cc1ccc(F)cc1 | inactive: -8.17% | 
10 | Cc1nc(C)n(CC(C)C(=O)N2CCN(S(=O)(=O)c3ccccc3)CC2)n1 (centres undefined) | inactive: -0.316% | 
11 | CN(CC(=O)Nc1ccc(S(N)(=O)=O)cc1)C1CCCCC1 | inactive: -16.2% | 
12 | CCN1CCN(C(=O)C(C)Nc2ccc(OC)cc2OC)CC1 (centres undefined) | inactive: 4.24% | 
13 | COc1ccc(C)cc1NC(=O)C1CCN(C(=O)c2ccc(C(C)(C)C)cc2)CC1 | inactive: 8.29% | 
14 | CC(C)(C)NC(=O)NC(=O)CN1CCN(c2cccc(Cl)c2)CC1 | inactive: 5.19% | 
15 | N#C/C(=C/c1ccc(N2CCOCC2)o1)c1ccc(Br)cc1 |  | active: 14.1 µM
16 | CC1CN(S(=O)(=O)c2cc(C(=O)NCCCN3CCCC3=O)ccc2Cl)CC(C)O1 (centres undefined) | inactive: 7.18% | 
17 | CCC(=O)Nc1cccc(-c2csc(-c3ccccc3)n2)c1 | inactive: 11.2% | 
18 | Cc1ccc(S(=O)(=O)/N=C2\C=C(Nc3cccc(C(=O)O)c3)C(=O)c3ccccc32)c(C)c1 | inactive: -11.7% | 
19 | COc1ccccc1NC(=O)C1=C(C)Nc2ncnn2C1c1ccc(C)o1 (centres undefined) | inactive: 17.7% | 
20 | Cc1ccc(C(=O)CNc2ccccc2)cc1 | inactive: 12.3% | 
21 | O=C1c2ccccc2NC(c2ccccc2O)N1NS(=O)(=O)c1ccccc1 (centres undefined) | inactive: 1.53% | 
22 | COc1ccc2cc(-c3cc(C(=O)OCC(=O)Nc4c(C)n(C)n(-c5ccccc5)c4=O)c4ccccc4n3)ccc2c1 | inactive: 24% | 

Row | SMILES | growth rescue (activation) | Potency
23 | C/C(=N\NC(=O)CNC(=O)C(c1ccccc1)c1ccccc1)c1ccccc1 | inactive: 13.6% | 
24 | O=C(CCOc1ccccc1)Nc1ccc([N+](=O)[O-])cc1 | inactive: 3.68% | 
25 | COc1cc(/C=C2/SC(=S)N(Cc3ccccc3)C2=O)ccc1OCC(=O)O | inactive: 5.27% | 
26 | COc1ccc(C2C3=C(CCCC3=O)Nc3n[nH]c(C)c32)cc1OC (centres undefined) | inactive: 3.21% | 
27 | COc1ccc(C)cc1NC(=O)CNc1ccc(C(C)=O)cc1 | inactive: -6.54% | 
28 | CCCn1c(=S)[nH]c2ccccc2c1=O | inactive: 5.16% | 
29 | CC(NC(=O)COc1ccccc1)C(c1ccccc1)N1CCN(C)CC1 (centres undefined) | inactive: 2.95% | 
30 | CN(C(=O)COC(=O)c1ccc2c(c1)OCO2)C1CCCCC1 | inactive: -8.94% | 
31 | O=C(CN1C(=O)NC2(CCCCCC2)C1=O)NCc1ccc(Cl)cc1 | inactive: 23.1% | 
32 | COc1ccccc1N(CC(=O)Nc1ccc(C)cc1Cl)S(=O)(=O)c1cccs1 | inactive: 3.97% | 
33 | COc1ccc(-c2nnc(NC(=O)CSc3ccc(C)cc3)s2)cc1OC | inactive: 3.12% | 
34 | Cc1[nH]ccc(=O)c1OCc1c(F)cccc1Cl | inactive: 0.587% | 
35 | CC1(C(=O)Nc2cccc3c2CCCC3)CCN1C(=O)CCC1CCCC1 (centres undefined) | inactive: 27.7% | 
36 | NS(=O)(=O)c1ccc(CCNC(=O)C2CCN(C(=O)Nc3ccccc3)CC2)cc1 | inactive: -44.7% | 
37 | O=C(C1CCCO1)N1CCN(C(=S)Nc2cc(F)cc(F)c2)CC1 (centres undefined) | inactive: 12.1% | 
38 | CCCn1c(NCc2ccccc2NS(=O)(=O)c2ccc(C)cc2)nc2ccccc21 | inactive: -13% | 
39 | CCOc1ccccc1OC(=O)c1cc2ccccc2oc1=O | inactive: 17% | 
40 | CCCC(=O)N/C(N)=N/c1nc(C)c2cc(C)ccc2n1 | inactive: -5.2% | 
41 | CNC(=O)NC(=S)NC(=O)c1cccc(Cl)c1 | inactive: -9.58% | 
42 | CCNC(=O)C1(C)CCN(Cc2cccc(C(F)(F)F)c2)C1 (centres undefined) | inactive: 11% | 
43 | O=[N+]([O-])c1ccccc1OCCOCCOc1cccc2cccnc12 | inactive: 12.7% | 
44 | COc1ccc(/C=C(\NC(=O)c2ccccc2)C(=O)NCCN2CCOCC2)cc1OC | inactive: -7.23% | 

Row | SMILES | growth rescue (activation) | Potency
45 | Cc1ccc(OC2CCN(C(=O)C3CCC(=O)N(C4CC4)C3)CC2)cc1 (centres undefined) | inactive: 21.8% | 
46 | Cc1cc(C)cc(Cn2c3ccc(NC(=O)NCc4ccccc4)cc3c(=O)n2C)c1 | inactive: 8.56% | 
47 | O=C(N/N=C/C=C/c1ccccc1)c1cccnc1 | inactive: 4.41% | 
48 | O=C(CSc1nc2ccc([N+](=O)[O-])cc2[nH]1)NC1CCCC1 | inactive: 20.2% | 
49 | Cc1cc(C)cc(NC(=O)Cn2c(=O)oc3cc(S(=O)(=O)N4CCCC4)ccc32)c1 | inactive: -2.13% | 
50 | COc1cccc(/C=N/NC(=O)C(=O)N/N=C/c2cccc(OC)c2O)c1O | inactive: -8.7% | 
51 | CCCNC(=O)/C=C/c1ccc(S(=O)(=O)Nc2ccccc2OC)cc1 | inactive: 4.49% | 
52 | COc1ccc(-c2csc(N3C(=O)CNC3=S)n2)cc1 | inactive: -21.3% | 
53 | CCCNC(=O)NC(=O)CSc1nnc(-c2c[nH]c3ccccc23)o1 | inactive: 9.88% | 
54 | CN(O)/C=C1\C(=O)Nc2ccccc21 | inactive: 7.94% | 
55 | Cn1c(N)c(C(=O)COC(=O)c2ccc3ccccc3c2)c(=O)n(C)c1=O | inactive: 10.6% | 
56 | Nc1nc(Cl)nc(N(c2ccccc2)c2ccccc2)n1 | inactive: 2.96% | 
57 | CC1(C(=O)Nc2ccccc2)CCN1C(=O)C1(c2ccc(Cl)cc2)CC1 (centres undefined) | inactive: 19.1% | 
58 | COc1cc(-c2coc3c(C(=O)NCc4ccncc4)cccc23)ccc1O | inactive: -5.43% | 
59 | O=C(N/C(=C\c1ccccc1)C(=O)N1CCCCC1)c1ccco1 | inactive: 1.15% | 
60 | O=S(=O)(Nc1cccc(S(=O)(=O)N2CCCC2)c1)c1cccs1 | inactive: 14.6% | 
61 | CC(C)c1cccc(OCCCCN(C)C)c1 | inactive: -9.14% | 
62 | CCc1nn(CCCC(=O)NCc2ccccc2Br)c(=O)c2cc3occc3n12 | inactive: -7.01% | 
63 | COc1ccc(NC(=O)CCNS(=O)(=O)c2cccc3nonc23)cc1 | inactive: 6.36% | 
64 | O=C(NC(=S)NNC(=O)c1ccccc1O)c1cccs1 | inactive: -52.1% | 
65 | Cc1cc(S(=O)(=O)N2CCOCC2)ccc1OCC(=O)Nc1ccc(Br)cc1F | inactive: 9.35% | 
66 | COc1ccccc1CCNC(=O)Nc1cccc([N+](=O)[O-])c1 | inactive: 3.85% | 

Row | SMILES | growth rescue (activation) | Potency
67 | CCCCN(S(=O)(=O)c1ccccc1)S(=O)(=O)c1ccccc1 | inactive: 13.1% | 
68 | COc1ccc(OC)c(NC(=O)c2cccc(N3C(=O)C4C5CCC(C5)C4C3=O)c2)c1 (centres undefined) | inactive: -8.64% | 
69 | O=[N+]([O-])c1cccc(S(=O)(=O)NCCCN2CCOCC2)c1 | inactive: 16.1% | 
70 | CCN(CC)S(=O)(=O)c1ccc(C(=O)Nc2nnc(NC(=S)Nc3ccccc3)s2)cc1 | inactive: 14.6% | 
71 | CCN=C1S/C(=C/c2ccc(-c3ccc(Cl)cc3C(=O)O)o2)C(=O)N1CC | inactive: 7.04% | 
72 | COCCn1c(C)nnc1SCC(=O)NNC(=O)c1ccc(Br)cc1 | inactive: -5.88% | 
73 | CCn1c(C(=O)NCc2cccc(Br)c2)cc2oc3ccccc3c21 | inactive: 11.3% | 
74 | COC(=O)c1ccc(COC(=O)c2cnc(Cl)c(Cl)c2)cc1 | inactive: 0.254% | 
75 | CCCCn1c(N)c(N(CCC(C)C)C(=O)COC(=O)c2cccnc2SC)c(=O)[nH]c1=O | inactive: 0.0527% | 
76 | Cc1ccc(-n2nnnc2SCC#N)cc1 | inactive: 9.67% | 
77 | Cc1cc(=O)oc2cc(OCC(O)CN3CCc4ccccc4C3)ccc12 (centres undefined) | inactive: -32.7% | 
78 | Cc1ccc2nc(N3C(=O)C(O)=C(C(=O)c4ccco4)C3c3ccc(C)o3)sc2c1 (centres undefined) | inactive: -22.4% | 
79 | O=C(Nc1ccc(F)cc1)C(c1ccccc1)N1CCN(S(=O)(=O)c2ccc3ccccc3c2)CC1 (centres undefined) | inactive: 5.26% | 
80 | O=C(COC(=O)CSc1ccc2ccccc2c1Br)NC1CC1 |  | active: 22.4 µM
81 | O=C(NCCCNC(=O)c1ccco1)c1cccc(F)c1 | inactive: 9.58% | 
82 | COc1ccccc1CNC(=O)COc1cccnc1[N+](=O)[O-] | inactive: 5.01% | 
83 | O=C(NC(c1ccccc1)c1cnccn1)C1CCN(CCCOc2ccccc2)CC1 (centres undefined) | inactive: 7.95% | 
84 | CN1CCN(c2nc(-c3ccccc3O)nc3ccccc23)CC1 | inactive: 9.17% | 
85 | COc1ccc(OC(F)(F)F)cc1CC1(C)C(=O)Nc2ccc(S(=O)(=O)NC3CCCCC3)cc21 (centres undefined) | inactive: 6.76% | 
86 | Fc1ccccc1N=C1Nc2cccc3cccc1c23 | inactive: 5.3% | 
87 | CCCc1cc(=O)[nH]c(SCC(=O)Nc2ccc(N3CCCCC3)cc2)n1 | inactive: -5.36% | 
88 | Brc1ccc(OCCCN2CCOCC2)cc1 | inactive: 7.48% | 

Row | SMILES | growth rescue (activation) | Potency
89 | CC(C)c1ccc(Nc2ncc3c(n2)CCN(C(=O)NC2CCCCC2)C3)cc1 | inactive: 25.6% | 
90 | Cc1ccc(CN(C)C(=O)c2cc(Br)c(Br)s2)o1 | inactive: 11.3% | 
91 | O=C(CC(Nc1ccccc1)C(=O)O)c1ccccc1 (centres undefined) | inactive: 30% | 
92 | CCCS(=O)(=O)Nc1c(C(=O)O)[nH]c2ccc(OC)cc12 | inactive: 1.05% | 
93 | Cn1c(SCC(=O)N2c3ccccc3CCc3ccccc32)nnc1-c1ccc(O)cc1 | inactive: -24.2% | 
94 | N#CCCn1cc(C(=O)Nc2ccc(C(=O)O)cc2)c(-c2ccc([N+](=O)[O-])cc2)n1 | inactive: -10.9% | 
95 | COc1ccc(C2N(c3ccc(C)cc3)CCN2c2ccc(C)cc2)cc1O | inactive: 0.708% | 
96 | O=C(Nc1ccc(S(=O)(=O)NCC2CCCO2)cc1)c1cccc(F)c1 (centres undefined) | inactive: 19.6% | 
97 | O=C(NC1CCSC1=O)C1CCCCC1 (centres undefined) | inactive: 17.2% | 
98 | CC(C)COP(=O)(OCC(C)C)C(Nc1ccccc1)c1ccc(F)cc1 (centres undefined) | inactive: 9.43% | 
99 | Cc1ccc([N+](=O)[O-])cc1N=C1C(=O)Nc2ccccc21 | inactive: -16.6% | 
100 | CC(O)CNCc1ccc(Cl)cc1Cl (centres undefined) | inactive: -5.86% | 
101 | Cc1cc(C)c(NC(=O)Cn2nc(-c3ccccc3)nc2-c2ccccc2)c(C)c1 | inactive: 4.44% | 
102 | CC(C)c1ccc(/C=C(\c2nc3ccccc3[nH]2)S(=O)(=O)c2ccccc2)cc1 | inactive: 25.9% | 
103 | CCCNC(=O)N1CCN(Cc2ccco2)CC1 | inactive: -5.76% | 
104 | Cc1cccc(OC(C)C(=O)Nc2ccc3c(c2)OCCO3)c1 (centres undefined) | inactive: -3.03% | 
105 | O=C(Nc1cc(Oc2ccc(Cl)cc2)cc([N+](=O)[O-])c1)c1ccco1 | inactive: 14.4% | 
106 | CCC(C)NC(=O)c1cc2c(=O)[nH]c3ccc(C)cc3c2s1 (centres undefined) | inactive: -9.06% | 
107 | COC(=O)CCC(=O)Nc1cccc([N+](=O)[O-])c1 | inactive: 10.9% | 
108 | COc1cccc(-n2cc(CN(C)Cc3nc(Cc4ccccc4)no3)cn2)c1 | inactive: -5.88% | 
109 | O=C(NC1CCCC1)C(c1ccccn1)N(C(=O)c1csnn1)c1ccccc1F (centres undefined) | inactive: 18.8% | 
